# In PubChem BioAssay AID900 (National Center for Advancing Translational Sciences (NCATS), 2007):
# Among all 75,000 compounds or so, about 20 (0.03%) were called active. Inconclusive results (about 1%) are left out. The call rests on the fitted dose curve; in most records, active means well fitted inhibition curve with a large enough effect; inconclusive means small, poorly fitted or top-dose-only effect; inactive means flat fitted curve, though single readings scatter. The list shows a part of the results, in another mix than the full data.
# Target: Caspase-1 (Homo sapiens) (UniProt P29466)
# Experiment: qHTS Assay for Allosteric/Competitive Inhibitors of Caspase-1
# Conditions: Caspase-1 enzyme, Ac-WEHD-AFC fluorogenic rate; series mostly up to 57.5 µM; activity change, negative = inhibition: at the top concentration
# Source text: NIH Molecular Libraries Screening Centers Network [MLSCN]
# NIH Chemical Genomics Center [NCGC]
# PI Name: Dr. James Wells,
# Dr. Enrique Perez-Paya, Dr.Janice Williams, Dr. Dennis Wolan, a person
# The caspases (Cysteine Aspartyl Protease) comprise a related family of 14 dimeric proteases that are critical mediators of apoptosis (programmed cell death) and inflammation. The caspases represent an important class of drug targets for stroke, ischemia, cancer and inflammatory diseases. […] One goal of this project was to identify compounds that act as allosteric inhibitors via stabilizing the procaspase form of the enzyme. Previous work in Well's laboratory has shown that such allosteric inhibitors can be identified and these act by binding at the dimer interface of enzyme (Hardy, Lam et al., 2004).
# The biochemical assay was configured using purified caspase 1 at a high enzyme concentration to promote formation of the homodimers and thus facilitate the identification of allosteric inhibitors. The overall goal was to identify reversible inhibitors with better drug-like properties than the currently available set of aspartyl-containing peptidomimetics that covalently bind the active site. Caspase 1 was assayed using the profluorescent substrate Ac-WEHD-AFC. After initiation of the assay with substrate the plates were rapidly read using an automated robotic system (Kalypsys, Inc.) to maintain consistent timing. A kinetic mode of detection was used where the initial rate was collected (estimated final product formation was ~10%). Compounds were screened as a concentration-titration series that ranged from 57 uM to 0.7 nM. Below is the protocol used for caspase 1.
# NCGC Assay Protocol Summary:
# Caspase 1 was prepared in buffer (50 mM HEPES pH 7.5, 50 mM KCl, 200 mM NaCl, 10 mM DTT, 0.1% CHAPS) at a concentration of 66.6 nM and 3 uL was dispensed to all wells using black solid Kalypsys 1536-well plates. 20 nL of DMSO containing compounds was added using a pin-tool (Kalypsys Inc.) to columns 5-48. Then 20 nL of DMSO solution from a control plate was added to columns 1-4. Controls were: Column 1, 16 point titration with each concentration in duplicate (1:1 dilutions in DMSO; final starting concentration was 57 uM) of the caspase 1 inhibitor Ac-WEHD-CHO (Alexis Biochemicals); Column 2, a 16 point titration with each concentration in duplicate of the free AFC fluorophore prepared in DMSO (Alexis Biochemicals), final starting was 40 uM; Column 3 neutral (DMSO only) control; Column 4: DMSO alone, to serve as a negative control (no substrate was added). Then 1 uL of 20 uM the substrate Ac-WEHD-AFC (Alexis Biochemicals) prepared in the same buffer was dispensed to all wells except columns 2 and 4 and the plates were immediately transferred (< 1 min) to the Viewlux. The plates were then exposed using 405 nm excitation/520 nm emission filters for 4 sec and read at 20 sec intervals for 3 min. Final enzyme concentration was 50 nM and the final substrate concentration was 5 uM.
# Concentration-response curves were fitted to the data calculated from slope of the linear regression of fluorescent intensity versus time (the rate). The concentration-effect curves were then classified based on curve quality (r2), response magnitude and degree of measured activity. […] Inconclusive compounds had appreciable concentration-dependent effects on both the measured rate and the interpolated basal fluorescence intensity at the start of the reaction but where the basal fluorescent intensity was marginal (e.g. < 10-fold). Inconclusive compounds also encompass highly fluorescent compounds (>100-fold increases in fluorescent intensities values relative to controls) where artificial concentration-dependent decreases in the rate occurred at high compound concentrations due to fluorescent interferences.
# Keywords: Caspase 1, proteases, profluorescent, MLSMR, MLSCN, NIH Roadmap, qHTS, NCGC
# Potency means the concentration at half of the fitted maximal effect.
Structure (SMILES),Potency,"activity change, negative = inhibition"
COc1ccc2c(c1)Cc1sc(NC(=O)c3cccs3)nc1-2,active: 31.6 µM,
COCCNC(=O)[C@H](C)[C@@H]1C[C@@]1(C)[C@@H](NC(=O)OCc1ccccc1)c1ccccc1,,inactive: 0.901%
COc1cc(N[C@@H](C)CCCN)c2ncccc2c1,active: 2.51 µM,
Cc1ccc(C(=O)Nc2ccc(S(=O)(=O)O)c3cc(S(=O)(=O)O)cc(S(=O)(=O)O)c23)cc1NC(=O)c1cccc(NC(=O)Nc2cccc(C(=O)Nc3cc(C(=O)Nc4ccc(S(=O)(=O)O)c5cc(S(=O)(=O)O)cc(S(=O)(=O)O)c45)ccc3C)c2)c1,inactive,
CCCc1ncc(C[n+]2ccccc2C)c(N)n1,,inactive: -2.63% [at 25.7 µM]
CN(Cc1cnc2nc(N)nc(N)c2n1)c1ccc(C(=O)N[C@H](CCC(=O)O)C(=O)O)cc1,,inactive: -8.75% [at 25.7 µM]
CC(=O)[C@@H]1[C@@H]2C(=O)N(c3ccc(F)c(Cl)c3)C(=O)[C@@H]2C2c3ccccc3C=CN21 (stereo not given in full),active: 31.6 µM,
COC(=O)[C@@H]1[C@@H]2C[C@H]3c4[nH]c5cc(OC)ccc5c4CCN3C[C@@H]2C[C@H](OC(=O)c2cc(OC)c(OC)c(OC)c2)[C@H]1OC,,inactive: -16.6% [at 25.7 µM]
CO[C@H]1COC(=O)C/C=C\[C@@H](C)[C@H](OC)COC(=O)CCC[C@@H]1C,,inactive: 0.279% [at 11.5 µM]
O=C1C(SCCO)=C(SCCO)C(=O)c2ccccc21,active: 15.8 µM,
CO[C@H]1COC(=O)CCC[C@H](C)[C@@H](OC)COC(=O)C/C=C\[C@@H]1C,,inactive: -3.97% [at 11.5 µM]
O=C1Cc2ccccc2C(=O)N1CCc1ccccc1,active: 5.01 µM,
CCn1cc(C(=O)O)c(=O)c2cnc(N3CCCC3)nc21,,inactive: -2.09% [at 25.7 µM]
C[C@@H]1[C@H](O)[C@@H](C)/C=C/C=C/C=C/C=C/C=C/C=C/C=C/[C@H](O[C@@H]2O[C@H](C)[C@@H](O)[C@H](N)[C@@H]2O)C[C@@H]2O[C@](O)(C[C@@H](O)C[C@@H](O)[C@H](O)CC[C@@H](O)C[C@@H](O)CC(=O)O[C@H]1C)C[C@H](O)[C@H]2C(=O)O,,inactive: -11.3%
COC(=O)C1C2CC3c4[nH]c5cc(OC)ccc5c4CCN3CC2CC(OC(=O)c2cc(OC)c(OC)c(OC)c2)C1OC (stereo not given),,inactive: -17.4%
O=C(O)[C@@H]1[C@@H]2C[C@H]3c4[nH]c5ccccc5c4CCN3C[C@@H]2CC[C@@H]1O,,inactive: -15% [at 25.7 µM]
Cc1nc(N=Nc2ccc(S(=O)(=O)O)cc2S(=O)(=O)O)c(COP(=O)(O)O)c(C=O)c1O,,inactive: 2.43%
C[C@H]1[C@@H](O)[C@@H](C)\C=C/C=C\C=C/C=C\C=C/C=C\C=C/[C@@H](O[C@H]2O[C@@H](C)[C@@H](O)[C@@H](N)[C@@H]2O)C[C@@H]2O[C@](O)(C[C@@H](O)C[C@@H](O)[C@@H](O)CC[C@@H](O)C[C@@H](O)CC(=O)O[C@H]1C)C[C@@H](O)[C@H]2C(=O)O (stereo in doubt),,inactive: -2.8% [at 25.7 µM]
CN(Cc1cnc2nc(N)nc(N)c2n1)c1ccc(C(=O)NC(CCC(=O)O)C(=O)O)cc1 (stereo not given),,inactive: -9.22%
C[C@H]1[C@H](O)[C@@H](C)C=CC=CC=CC=CC=CC=CC=C[C@H](O[C@@H]2O[C@@H](C)[C@H](O)[C@@H](N)[C@@H]2O)C[C@@H]2O[C@](O)(C[C@@H](O)C[C@@H](O)[C@@H](O)CC[C@@H](O)C[C@@H](O)CC(=O)O[C@H]1C)C[C@H](O)[C@H]2C(=O)O,,inactive: 2.64% [at 11.5 µM]
